# Data reported in PubChem BioAssay AID504706 (National Center for Advancing Translational Sciences (NCATS), 2011).
# Among all 320,000 compounds or so, about 200 (0.062%) were called active. Inconclusive results, whose numbers are uncertain, are shown with a selection of clear calls. The call rests on the fitted dose curve; in most records, active means well fitted activation curve with a large enough effect; inconclusive means small, poorly fitted or top-dose-only effect; inactive means no such curve, though single readings can be large or run the other way. No potency is given beside an inconclusive call; the fits are too rough.
# Test: qHTS assay for re-activators of p53 using a Luc reporter; further: nearly all actives have a fitted effect of over 45% in size; on activity change, positive = activation: % of control where 0% means no effect
# Settings: H1299 p53-A138V BP100-luciferase reporter, luminescence, 24 h; series mostly up to 92.2 µM; activity change, positive = activation: at the top concentration
# Method in brief: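 H1299 (p53-null), stable ts p53-A138V + BP100-Luc; 1000 cells/well, Opti-MEM/10% FBS; cpd 4 pt, 1:5; 24 h, 37 deg C, 5% CO2; detection reagent 10 min RT; luminescence.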
# Potency means the concentration at half of the fitted maximal effect; tags describe the fitted curve by direction and shape.
SMILES,Potency,"activity change, positive = activation"
COc1ccc(-c2nc3ncccc3n2O)cc1,"inconclusive [activator, single point]",
OC(COc1ccc(OCc2ccccc2)cc1)CN1CCCCC1 (stereo not drawn),"inconclusive [activator, full curve, poor fit]",
CN1C2=CC=CC=CC2=[N+](C)C12C([N+](=O)[O-])=CC(=[N+]([O-])[O-])C=C2[N+](=O)[O-] (stereo not drawn),"inconclusive [activator, full curve]",
COc1ccc(C2c3ccc(O)cc3Oc3ncn4nc(-c5cccnc5)nc4c32)cc1OC (stereo not drawn),,inactive: 3.73%
Nc1c(C(=O)Nc2ccc(Cl)cc2)oc2ccccc12,"inconclusive [activator, partial curve, poor fit]",
CCCc1nc(SCC(=O)NNC(=O)c2ccc(OC)cc2)c2ccccc2n1,"inconclusive [activator, single point]",
O=c1[nH]c(=S)[nH]c2nc(-c3cccs3)cc(C(F)(F)F)c12,,inactive: 3.07%
COc1ccccc1NC(=O)c1cnc(SC)nc1,"inconclusive [activator, partial curve, poor fit]",
O=C(COC(=O)C12CC3CC(CC(O)(C3)C1)C2)Nc1ccc(OC(F)F)cc1,"inconclusive [activator, single point]",
O=[N+]([O-])c1cccc(-c2nc(-c3ccccn3)no2)c1,,inactive: -11%
CC1CN(C(=O)COC(=O)c2cnc(Cl)c(Cl)c2)CC(C)O1 (stereo not drawn),,inactive: 8.63%
Cc1[nH]c2ccccc2c1C(=O)CSC(=S)N1CCOCC1,,inactive: 6.28%
Cc1nn(-c2ccccc2)c(N)c1Sc1ccc([N+](=O)[O-])cc1,"inconclusive [activator, full curve, poor fit]",
C/C(=N\NC(=S)NCCc1ccccc1)c1ccc(C)cc1,"inconclusive [activator, single point]",
COCCSc1nnc(NC(=O)C2CCCCC2)s1,"inconclusive [activator, partial curve, poor fit]",
Cc1occc1C(=O)Nc1cccc(Cl)c1Cl,"inconclusive [activator, partial curve, poor fit]",
Cc1ccc(S(=O)(=O)CNC(=O)c2ccccc2)cc1,"inconclusive [activator, partial curve, poor fit]",
CC(C)N1CCc2c(sc(NC(=O)c3ccc(S(=O)(=O)N4CCCCC4C)cc3)c2C(N)=O)C1 (stereo not drawn),"inconclusive [activator, partial curve, poor fit]",
O=c1c(-c2ccc(F)cc2)coc2cc(O)ccc12,"inconclusive [activator, partial curve, poor fit]",
Brc1ccc(N=NNc2ccccc2)cc1,"inconclusive [activator, partial curve, poor fit]",
CCn1c(/C=N/n2cnnc2)nc2ccccc21,"inconclusive [activator, single point]",
COc1cccc(C(=O)Nc2cccc(OC(C)=O)c2)c1,"inconclusive [activator, partial curve, poor fit]",

SMILES,Potency,"activity change, positive = activation"
CCOC(=O)c1c(-c2cccs2)csc1NC(=O)C(C)(C)C,"inconclusive [activator, partial curve, poor fit]",
COc1ccc(NC(=O)CN(C)C(=O)CCCN2C(=O)c3cccc4cccc(c34)C2=O)cc1,,inactive: -11.1%
Clc1ccccc1C1=CC(c2ccco2)n2ncnc2N1 (stereo not drawn),,inactive: -2.53%
Nc1ccccc1Nc1cc(-c2cccc(Cl)c2)nn1-c1ccccc1,"inconclusive [activator, full curve]",
Cc1csc(NC(=O)c2oc3ccccc3c2C)n1,"inconclusive [activator, full curve, poor fit]",
COc1ccc(NS(=O)(=O)c2ccc(O)c(C(=O)OCC(=O)N3CCCCC3)c2)cc1,,inactive: 6.26%
CCCCNC(=O)c1c(C)cc(=O)oc1C,"inconclusive [activator, full curve]",
O=C(O)C1C2C=CC(C2)C1C(=O)Nc1ccc(C(=O)N2CCCCC2)c(Cl)c1 (stereo not drawn),"inconclusive [activator, full curve, poor fit]",
Cn1ncc(Cl)c1C(=O)Nc1ccc2c(c1)OCO2,"inconclusive [activator, single point]",
O=C(Nc1nc2ccc(F)cc2s1)C1CCN(S(=O)(=O)c2cc([N+](=O)[O-])ccc2Cl)CC1,"inconclusive [activator, partial curve, poor fit]",
CN(N=Nc1ccc([N+](=O)[O-])cc1)c1ccccc1,"inconclusive [activator, partial curve, poor fit]",
O=C1C2C(C(=O)N1/N=C/c1cccc([N+](=O)[O-])c1)C1C=CC2C12CC2 (stereo not drawn),"inconclusive [activator, partial curve, poor fit]",
CCOc1ccc(C(=S)NC2CCCCC2)cc1OC,,inactive: 6.93%
O=C1CCC(=O)N1CC1CC2CCC1C2 (stereo not drawn),,inactive: -3.49%
Cc1ccc(NC(=O)CNC(=O)C2CCCCC2)nc1,,inactive: 0.793%
Cc1ccc(-c2csc(NC(=O)c3ccc(F)cc3)c2C(=O)O)cc1,"inconclusive [activator, partial curve, poor fit]",
O=C(c1ccc(F)cc1)[C@@H]1[C@@H](C(=O)c2ccccc2)[C@@]2(C(=O)Nc3ccccc32)[C@H]2c3ccccc3C=CN12,"inconclusive [activator, partial curve, poor fit]",
CC(C)CCNC(=O)C1CCN(c2nc3ccccc3o2)CC1,,inactive: -1.27%
Clc1ccccc1Cn1nnc(-c2cccs2)n1,"inconclusive [activator, partial curve, poor fit]",
COc1ccc(C(=O)Nc2ccc3c(c2)OCO3)cc1OC,"inconclusive [activator, partial curve, poor fit]",
Fc1ccccc1OCCn1c(=S)[nH]c2ccccc21,"inconclusive [activator, single point]",
